The source of these data is PMC3181343.

Amino acid sequences for entries named in this document (tags omitted). Residues count along the entry.
UniProt P31424, residues 21-1203: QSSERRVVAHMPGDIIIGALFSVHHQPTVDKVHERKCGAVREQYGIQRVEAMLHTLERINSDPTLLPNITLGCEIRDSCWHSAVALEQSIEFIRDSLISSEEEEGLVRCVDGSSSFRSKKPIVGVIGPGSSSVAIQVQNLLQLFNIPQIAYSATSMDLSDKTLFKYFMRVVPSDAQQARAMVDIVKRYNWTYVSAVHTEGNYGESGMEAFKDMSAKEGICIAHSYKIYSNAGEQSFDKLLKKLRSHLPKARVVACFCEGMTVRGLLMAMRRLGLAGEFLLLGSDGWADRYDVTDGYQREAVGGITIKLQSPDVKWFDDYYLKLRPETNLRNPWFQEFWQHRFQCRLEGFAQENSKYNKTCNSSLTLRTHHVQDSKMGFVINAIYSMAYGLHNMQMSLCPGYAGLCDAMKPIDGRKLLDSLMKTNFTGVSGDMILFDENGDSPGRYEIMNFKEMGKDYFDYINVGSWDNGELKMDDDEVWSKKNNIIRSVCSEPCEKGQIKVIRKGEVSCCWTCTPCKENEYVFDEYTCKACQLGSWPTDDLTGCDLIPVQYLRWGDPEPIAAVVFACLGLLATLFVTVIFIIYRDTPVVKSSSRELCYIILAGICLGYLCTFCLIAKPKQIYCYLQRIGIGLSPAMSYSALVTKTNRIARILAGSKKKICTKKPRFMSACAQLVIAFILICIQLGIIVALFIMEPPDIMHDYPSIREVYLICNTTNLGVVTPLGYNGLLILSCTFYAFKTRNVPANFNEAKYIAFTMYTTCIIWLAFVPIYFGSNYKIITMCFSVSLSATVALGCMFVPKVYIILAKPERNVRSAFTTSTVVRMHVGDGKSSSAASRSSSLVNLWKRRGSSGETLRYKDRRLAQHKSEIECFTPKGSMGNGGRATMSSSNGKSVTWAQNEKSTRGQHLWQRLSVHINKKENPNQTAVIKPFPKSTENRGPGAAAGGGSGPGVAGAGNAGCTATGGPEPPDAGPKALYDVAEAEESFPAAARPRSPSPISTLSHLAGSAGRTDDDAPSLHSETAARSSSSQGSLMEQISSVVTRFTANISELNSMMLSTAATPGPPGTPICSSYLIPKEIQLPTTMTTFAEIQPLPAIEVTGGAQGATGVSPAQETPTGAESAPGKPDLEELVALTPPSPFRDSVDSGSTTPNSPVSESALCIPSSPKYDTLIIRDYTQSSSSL
UniProt P23385, residues 19-1199: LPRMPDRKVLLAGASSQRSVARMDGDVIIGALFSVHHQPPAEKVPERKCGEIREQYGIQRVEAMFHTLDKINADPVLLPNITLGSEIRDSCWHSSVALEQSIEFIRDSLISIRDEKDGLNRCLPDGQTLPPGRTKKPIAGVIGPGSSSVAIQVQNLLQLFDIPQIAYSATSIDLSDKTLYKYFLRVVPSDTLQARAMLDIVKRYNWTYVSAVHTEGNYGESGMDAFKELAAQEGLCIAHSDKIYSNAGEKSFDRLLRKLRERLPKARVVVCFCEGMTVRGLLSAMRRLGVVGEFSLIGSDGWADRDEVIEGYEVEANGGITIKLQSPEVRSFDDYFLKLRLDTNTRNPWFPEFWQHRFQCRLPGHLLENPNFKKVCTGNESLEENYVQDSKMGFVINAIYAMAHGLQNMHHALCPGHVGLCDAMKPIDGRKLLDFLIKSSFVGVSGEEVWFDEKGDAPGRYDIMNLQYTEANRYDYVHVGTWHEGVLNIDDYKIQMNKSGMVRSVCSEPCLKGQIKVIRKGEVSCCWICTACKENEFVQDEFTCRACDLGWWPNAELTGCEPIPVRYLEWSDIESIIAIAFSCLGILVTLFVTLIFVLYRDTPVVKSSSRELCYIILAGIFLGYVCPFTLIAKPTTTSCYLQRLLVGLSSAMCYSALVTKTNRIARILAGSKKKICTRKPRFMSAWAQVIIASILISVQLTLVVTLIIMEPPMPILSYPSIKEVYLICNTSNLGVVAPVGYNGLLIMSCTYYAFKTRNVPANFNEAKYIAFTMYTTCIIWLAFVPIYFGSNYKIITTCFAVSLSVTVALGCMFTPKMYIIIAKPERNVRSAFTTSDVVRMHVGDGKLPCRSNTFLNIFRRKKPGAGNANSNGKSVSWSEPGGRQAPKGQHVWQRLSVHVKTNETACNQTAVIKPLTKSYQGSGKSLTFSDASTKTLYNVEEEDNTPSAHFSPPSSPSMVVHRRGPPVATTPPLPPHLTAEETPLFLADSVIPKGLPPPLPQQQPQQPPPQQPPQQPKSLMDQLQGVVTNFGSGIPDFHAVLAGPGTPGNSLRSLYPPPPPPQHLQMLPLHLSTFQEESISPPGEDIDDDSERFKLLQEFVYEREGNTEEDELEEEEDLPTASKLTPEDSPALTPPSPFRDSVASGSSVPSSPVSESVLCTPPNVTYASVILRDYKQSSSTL
UniProt P70498: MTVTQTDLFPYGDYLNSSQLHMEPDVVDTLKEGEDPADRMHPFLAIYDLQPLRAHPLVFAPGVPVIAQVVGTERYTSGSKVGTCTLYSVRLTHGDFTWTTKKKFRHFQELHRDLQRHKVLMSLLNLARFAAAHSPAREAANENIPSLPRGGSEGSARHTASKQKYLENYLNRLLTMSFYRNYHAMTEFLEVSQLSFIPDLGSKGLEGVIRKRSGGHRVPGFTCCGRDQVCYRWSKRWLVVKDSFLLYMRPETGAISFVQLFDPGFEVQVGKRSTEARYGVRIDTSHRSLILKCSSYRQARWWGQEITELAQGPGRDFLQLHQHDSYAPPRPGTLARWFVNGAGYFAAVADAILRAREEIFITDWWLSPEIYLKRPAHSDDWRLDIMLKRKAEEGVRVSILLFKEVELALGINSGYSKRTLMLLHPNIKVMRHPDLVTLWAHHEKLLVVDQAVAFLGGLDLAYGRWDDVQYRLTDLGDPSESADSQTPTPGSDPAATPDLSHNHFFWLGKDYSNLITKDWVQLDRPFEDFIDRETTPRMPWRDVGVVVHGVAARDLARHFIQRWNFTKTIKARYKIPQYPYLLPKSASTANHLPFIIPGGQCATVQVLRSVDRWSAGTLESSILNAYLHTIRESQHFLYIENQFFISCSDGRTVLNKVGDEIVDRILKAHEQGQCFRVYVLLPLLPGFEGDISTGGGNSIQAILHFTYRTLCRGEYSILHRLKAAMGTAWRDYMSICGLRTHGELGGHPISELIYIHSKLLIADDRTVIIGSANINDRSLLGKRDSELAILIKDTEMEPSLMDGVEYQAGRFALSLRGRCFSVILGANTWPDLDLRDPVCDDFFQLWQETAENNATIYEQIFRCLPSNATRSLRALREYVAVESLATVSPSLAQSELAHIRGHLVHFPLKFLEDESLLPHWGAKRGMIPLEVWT

Experiment [1] has as its target metabotropic glutamate receptor 5 (rat (endogenous in amygdala of Sprague-Dawley rats)) (UniProt P31424). Put plainly: co-IP; amygdala extracts from cocaine CPP rats; IP with mGluR1 or mGluR5 antibody, immunoblot with PLD1 or PLD2 antibody. In general terms: In western blotting, separated proteins are transferred to a membrane and probed.
Experiment [2] deals with metabotropic glutamate receptor 1 (rat (endogenous in amygdala of Sprague-Dawley rats)) (UniProt P23385). The experiment is described as above.
The target of experiment [3] is metabotropic glutamate receptor 5 (rat (endogenous in amygdala of Sprague-Dawley rats)) (UniProt P31424). Nature of the experiment: condition: only amygdala of saline-treated animals (no cocaine CPP); co-IP; amygdala extracts from saline-treated rats; IP with mGluR1 or mGluR5 antibody, immunoblot with PLD1 or PLD2 antibody.
In experiment [4] the target is metabotropic glutamate receptor 1 (rat (endogenous in amygdala of Sprague-Dawley rats)) (UniProt P23385). Described as above.

Results are given in words; binding and its absence hold for the method and conditions named. In cells and extracts the contact can be indirect. Some results given as binding are weak or reduced against the parent protein; the word gives no strength.

Take “phospholipase D2 (from UniProt P70498 1-933) (enzyme)”: the binding entry in experiment [1] was “binds”; in experiment [2], “binds”; in experiment [3], “no binding”; in experiment [4], “no binding”.

B1: phospholipase D1 (enzyme, UniProt P70496 1-1074)
chain: MSLRSEARVNTSTLQKIAADMSNLIENLDTRELHFEGEEVEYDASPGDPTAQEACIPFSSIYNTQGFKEPNIQIYLSGCPVKAQVLEVERFTSTSRMPSVNLYTIELTHGEFTWQVKRKFKHFQEFHRELLKYKAFIRIPIPTKRHTFRRQNVKEEPREMPSLPRSSENAIQEEQFFGRRKQLEDYLTKILKMPMYRNYHATTEFLDVSQLSFIHDLGPKGLEGMIMKRSGGHRIPGVNCCGHGRACYRWSKRWLIVKDSFLLYMKPDSGAIAFVLLVDKEFRIKVGKKETETKYGLRIDNLSRTLILKCNSYRHARWWGGAIEEFIQKHGTDFLKDHRFGSYAAVHENILAKWYVNAKGYFEDIANAMEGATEEIFITDWWLSPEIFLKRPVVEGNRWRLDCILKRKAQQGVRIFIMLYKEVELALGINSEYTKRTLMRLHPNIKVMRHPDHVSSSVYLWAHHEKLVIIDQSVAFVGGIDLAYGRWDDNEHRLTDVGSVKRVTSGQSLGSLTAASVESMESLSLKDKHQSHKNEPVLKSVNDTDMKLKGIGKSRKFSKFSLYRQLHRRNLHNSDSISSVDSASSYFNHYRSHQNLIHGIKPHLKLFRPSSESEQGLTRHSADTGSIRSVQTGVGELHGETRFWHGKDYCNFVFKDWVQLDKPFADFIDRYSTPRMPWHDIGSVVHGKAARDVARHFIQRWNFTKIMKPKYRSLSYPFLLPKSQATAHELRYQVPGAVHAKAQLLRSAADWSAGIKHHEESIHAAYTHVIENSKHYIYIENQFFISCADDKVVFNKVGNAIAQRILKAHREGQRYRVYIVIPLLPGFEGDISTGGGNALQAIMHFNYRTMCRGESSILEQLKPELGNKWINYISFCGLRTHAELEGNLVTELIYVHSKLLIADDNTVIIGSANINDRSMLGKRDSEMAVIVQDTETVPSVMDGKEYQAGRFAQGLRLECFRLVLGYLSDPSEDIQDPVSDKFFKEIWVSTAARNATIYDKVFRCLPNDEVHNLIQLRDFINKPILAKEDRLRAEEELRKIRGFLVQFPFYFLSEENLLPSVGTKEAIVPMEVWT
Regarding B1, the binding result in experiment [1] is reported as “binds”; in experiment [2] it was “binds”; in experiment [3], “no binding”; in experiment [4] it was “no binding”.
